# Data reported in the supplement of paper PMC10126150.
# Sequences with one replicate were seen in a single cluster, so their values are uncertain.
# System: ATP
# Test: switch fluorescence ratio, 500 uM ATP over buffer (Cy3 cluster intensity, sum of 5 cycles each) (fold (ratio)); higher = stronger signal-on switching upon ATP binding; sequences stand for … in TCGTCGGCAGCGTCAGATGTGTATAAGAGACAGTTTTTTTTTTTTTTTTTTTTTTTTT…TC
# Conditions: aptamer strand: ATP DNA aptamer (quencher-CACCTGGGGGAGTATTGCGGAGGAAGG + anchor), 100 nM annealed; ATP concentration: 500 uM; one replicate
# Outline: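 Switching-strand clusters labelled with Cy3 on a modified Illumina MiSeq flow-cell were annealed to 100 nM quencher-labelled ATP aptamer, imaged in selection buffer, and re-imaged after 15 min with 500 uM ATP at 22 °C. This was done over five cycles with NaOH stripping and re-annealing in between. The fluorescence ratio is summed target-cycle over summed buffer-cycle Cy3 intensity per cluster, averaged per switch-domain sequence, excluding clusters outside 100-1000 RFU.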
# 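Also: ATP exposure 15 min at 22 °C before imaging.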
row,Sequence,switch fluorescence ratio
1,TCGGGACTTT,0.995
2,TTGCGCTGGT,0.997
3,ACTTAAGCCG,1.08
4,GATTCTGGGC,0.961
5,TAAGTAGTGA,1.05
6,GGTACCGATC,1.02
7,TACTTATTTA,0.993
8,ATATTTTGGA,1.03
9,TTATAAAATA,1.03
10,TCGTTACAAA,1.02
11,ACATGACCG,1.22
12,CGTATGGTGG,0.902
13,ATACGCTCCG,1.05
14,CCACCCCAAT,2.97
15,GTTCCAGTTA,0.982
16,AGCTCATCTT,0.999
17,GAAGGCTAAC,1.04
18,ATACTCTCAG,1
19,TGGCACCCTG,1
20,AACTTTTCTC,1.13
21,GAGTGGTGG,0.915
22,ATGACCGGAA,1.03
23,ATGGCGTGTG,1.02
24,AACTATTCCT,1.15
25,TCTCGGCTAA,2.38
26,CTTTGTTGTA,0.973

row,Sequence,switch fluorescence ratio
1,TTTCTGGCGT,1.02
2,TCGTAAATCG,1.08
3,GGGGCCAGGC,1.04
4,TCGTTTATGA,0.981
5,GCATATAGGG,1.04
6,AGGTTGAGTG,0.992
7,TCCTTTCGGG,1.05
8,AAGAAGCATG,0.989
9,CGAAGTTCGA,1.05
10,TTTTTCTACT,1.01
11,GAGGTAACAT,1.02
12,CACACGTGTC,0.986
13,GGATAGAAG,0.975
14,ACATAATAG,1.09
15,TAGTTACGC,0.987
16,TTACTCAAGG,1.04
17,CTTATGAAGT,0.945
18,AAGTGCATTT,1.02
19,AATAAGCAA,1.6
20,CCCGATTTGT,1.01
21,GGATGCGAAG,0.974
22,CCACAATTGG,1.02
23,AGTCAGGACT,1.01
24,GTAGTTTAA,0.992
25,CCAGTGCTCG,1.03
26,TATGCCGGGT,0.965

row,Sequence,switch fluorescence ratio
1,GAGCCAGGAC,1.1
2,ACTCGACGCG,1.01
3,ACGTACTCCC,1.52
4,TAAGTGGTTA,0.992
5,ACGAAATGA,1.15
6,GAAATGAAGC,1.01
7,AAGATTCAAT,0.98
8,AACTACAATT,1.09
9,ATGGAGTAAT,1.04
10,AAGGCGTAGG,0.953
11,TGTTGTAACT,1.04
12,GAGCCTACCA,1.05
13,AAGGTGCTTA,1.12
14,TAGATTAG,1.04
15,GCAGCGCCGG,1.01
16,GGGTATATTC,0.954
17,TTTCACCGTT,0.957
18,TTGCCCGAGG,1.07
19,CCAGGCCAAG,1.01
20,ATTCTAGCAG,1.04
21,GACGGCTACA,1.1
22,TTGCAGTTTG,0.957
23,AGTAACGAGT,0.922
24,ACAAGTGTCG,1.13
25,CTCGTTGTGA,1.04
26,CAAGCGCAGG,1.06

row,Sequence,switch fluorescence ratio
1,ACTAGGGGTA,1.01
2,ATATGAAGG,1.01
3,CGTCAGACTG,1.04
4,CCACGAACGG,1.47
5,CGAATGCATA,1.62
6,TGACAAACT,1.05
7,ACAAGTTACC,1.15
8,GAACAGAGCG,1.02
9,AGAGTCTCAG,1.02
10,CGGGCAGCTC,1.03
11,TTTTGTCCCA,0.985
12,CGGGGTCGCA,0.991
13,ATATGATACA,1.05
14,AGTCATTAGA,0.999
15,GAGGGGCCTT,1.03
16,GTTCTAGATA,0.983
17,ATTCGCTTGC,1.1
18,TGGCAGGCC,0.948
19,TGGTATCCGG,0.968
20,TAGCAGCAGC,0.981
21,CCTCGGGCAT,4.81
22,TAAATAGTGA,1.01
23,TTCGCTTCTG,0.991
24,AAACCGGGAT,1.04
25,GATAGAGCCC,1
26,CGCTCAGTGC,1.22

row,Sequence,switch fluorescence ratio
1,GATCGTTACG,1
2,ATATGGGGCT,0.998
3,CTGTTAATGA,1
4,TTTATGCATA,0.951
5,GGGGGAACAT,1.07
6,AGCCGCAGAA,1.57
7,TCAATGCGCT,1.01
8,AACCACGTGG,0.968
9,TGGTGAGGA,1.04
10,GGGGGCGCTT,1.03
11,ACTCGTTGCG,1.17
12,CTAATCATGG,0.957
13,GCACATGCTT,1.08
14,TAATATAGT,0.962
15,ATCGCCAAGT,0.974
16,TAAGTTCAGT,1.01
17,AGTTATTGTC,1.04
18,ATGGATCTTT,0.991
19,TATTAAGCG,0.997
20,ACCGTCTGAC,1.13
21,TAGCTTTGCG,1.07
22,CAAAACTCTC,1.8
23,ACACCTGGGG,1.08
24,GTACTCAACC,1.22
25,CATTGAACCC,1.53
26,AATACAACCT,1.66

row,Sequence,switch fluorescence ratio
1,CTGTTGGCTG,0.938
2,AAGTGATTTA,0.948
3,GCCGACTTGT,1.04
4,GGTAGGCAGA,1.03
5,TTCTGATAAC,1.03
6,TACAGAAAGG,1.02
7,TACAAAATAA,1.05
8,ACTTAATAT,1.07
9,AGAGCATTT,1.06
10,TTGAGCGTAG,1.05
11,ATCAGCCAG,1.01
12,ATTGGTGGT,1.06
13,GGAGCTTTTC,1.27
14,GACTATACAC,1.41
15,GGACGGGGCT,0.962
16,AGTATTAATA,1.01
17,TGTTAGAATG,1.02
18,AAGACTGTAT,1.15
19,ACATAAGGCG,1.14
20,TTTAAAGAG,0.96
21,TTTTCCGGCA,1.36
22,CCCGAGTCGG,1.05
23,TGCATCAGTG,0.968
24,CCATCTAAGG,0.967
25,TATCGCGTTG,1.02
26,TATCATGAAT,1.03

row,Sequence,switch fluorescence ratio
1,TTGACATACC,1.33
2,TAAAAAG,0.982
3,GTGATAGGGT,1.03
4,CAAGGTCAGT,0.957
5,TTTACAGCTG,1.08
6,TTGCGCCAAG,1.04
7,CGGCCCGTTT,0.989
8,TCAGTCTGTG,1.05
9,GCATACTTGA,1.03
10,CCATGCAGGG,1.05
11,GCCGCGGTAG,1.56
12,GATTGGAATT,0.934
13,TCGGTAGCGT,1.12
14,TCGCAAAAGG,1.24
15,CGAGACTCAT,1.02
16,CGGAGCCCCG,0.946
17,AGCCGGAGAA,0.98
18,GTGGCAGAAC,1.16
19,ACATGACCGC,1.24
20,AAGCTCTATG,0.964
21,GAATTACGTC,1.17
22,GCCCGTGTTA,0.974
23,ACTGTAAAAT,1.05
24,AAAACGATAG,0.961
25,GAGCTTCATA,0.976
26,GTTCTCCGGA,1.02

row,Sequence,switch fluorescence ratio
1,ATATATTCAG,1.02
2,GGAACGTCC,1.05
3,TTGTCCATGA,0.991
4,AAAGTGCAGG,1.01
5,TCGCTGGCAT,0.976
6,TTCGTAGGCT,0.99
7,TGTAGGTTGC,0.949
8,TGAAGGAGAC,1.04
9,CCCAATCGGC,1.24
10,CAAATTGAAA,1.02
11,AAGCATAAAT,0.968
12,GCCATAGAGT,0.987
13,TCCGCTGTGG,1.75
14,CCGCGTCTCT,2.36
15,GTCTTATCTG,0.961
16,TAGCACTGGC,1
17,ATTAGTGCGC,0.967
18,TTTACAAAAT,0.975
19,CGTAGTTCTG,0.95
